# From the supplement of paper PMC3334620
# Whole data set: some 33,000 sequences, median “E-score (-0.5 to 0.5)” near -0.013, cut for the highest 2% near 0.3. Some of the results follow.
# Target: T1, Msn1 (UniProt P22148)
# T1 sequence: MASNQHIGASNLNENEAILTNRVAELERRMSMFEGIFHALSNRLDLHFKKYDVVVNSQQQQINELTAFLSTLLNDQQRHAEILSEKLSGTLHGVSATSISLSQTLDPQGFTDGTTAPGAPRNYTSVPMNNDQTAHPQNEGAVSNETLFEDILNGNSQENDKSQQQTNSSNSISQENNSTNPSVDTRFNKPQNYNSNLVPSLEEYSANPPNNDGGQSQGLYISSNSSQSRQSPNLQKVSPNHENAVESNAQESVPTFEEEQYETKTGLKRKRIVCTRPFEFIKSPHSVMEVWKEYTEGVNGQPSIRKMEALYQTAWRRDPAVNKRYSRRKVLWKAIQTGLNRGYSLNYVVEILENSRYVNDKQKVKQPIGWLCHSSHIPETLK
# Experiment: PBM E-score (8-mer binding enrichment) (E-score (-0.5 to 0.5)); higher = stronger / more preferred TF binding; most listed sequences are background and not binding sites
# Conditions: protein concentration: 200 nM; construct: GST-full length
# How it was run: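 Yeast transcription factors, full-length or as DNA-binding domains, were expressed with a GST tag using PURExpress in vitro transcription/translation. At about 100-200 nM they were applied to universal all-10-mer Agilent arrays, double-stranded by primer extension on fresh or once-stripped slides. Fluorescent anti-GST detected bound protein, and masliner normalised the scans. E-scores for ungapped eight-base words, pooled with reverse complements, came from the Universal PBM Analysis Suite.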
row,Sequence,PBM E-score
1,GGGGGTTA,-0.344
2,CCGGGATA,0.101
3,CGCCGTCC,-0.0782
4,GTACCGGA,0.214
5,CGGGCGAC,-0.0832
6,AGTCGTGA,0.065
7,CTATGTGC,-0.0695
8,ACTAGAGA,0.0455
9,CCGGTCTC,-0.0542
10,AGCATGCG,-0.0235
11,AGCAGAAC,0.0181
12,CGGGAATA,0.0169
13,GGGGTTAC,-0.366
14,CTTGGACC,-0.163
15,GACCATAC,0.115
16,GGCGACCC,-0.458
17,ACGTTGGC,-0.122
18,CGTATTGC,0.0136
19,AAGTTCAG,0.0276
20,GACTGGTA,-0.022
21,AGCACTTG,-0.231
22,AAACGCAG,0.0105
23,AGTTAAGA,0.0786
24,CGCTGACC,0.00598
25,ACCTTCCC,-0.206

row,Sequence,PBM E-score
1,CTAGCACC,0.0912
2,GCTCAGCC,-0.197
3,GGGACCAA,-0.0643
4,CAAACTAA,0.24
5,AAGGATTC,-0.0884
6,AATATACT,-0.0295
7,CCTTACAA,-0.0555
8,AGTAGTAG,-0.116
9,ACTTGCCC,-0.0294
10,GAGGGGCC,-0.305
11,CTCCGCCA,-0.2
12,TATGGTGA,-0.0581
13,CGATCCCG,-0.23
14,CTGTCGGC,-0.108
15,AGCGTGGC,-0.0004
16,AATCTATG,0.195
17,GATTTGAC,-0.0517
18,CCAGCTGC,-0.3
19,CGAAACCC,0.00265
20,ACACGCTG,-0.071
21,ATAAGCTC,-0.0844
22,ACTTCGCT,-0.0222
23,CATAGTTA,-0.00457
24,CCCTGACA,0.0682
25,CCCCGCGA,-0.0204

row,Sequence,PBM E-score
1,ATAGCCCA,-0.0783
2,TACAACGA,0.0864
3,CAATTTGA,0.046
4,CGGAGGTC,0.0119
5,GAGGACAA,0.466
6,GCAGCTAC,-0.0142
7,CCCATGCG,-0.0652
8,TATATCAA,0.144
9,CGCCTAAA,-0.0501
10,AGGTCAGC,-0.0455
11,AAGATTTA,-0.0196
12,AGTACGTC,0.0255
13,AATACTTG,0.027
14,CACGCAGC,-0.183
15,ATAGATCG,0.0721
16,CTCTAAAA,0.0281
17,CAAGTTAG,0.074
18,CCGTTGTA,0.187
19,GCGTGTAC,0.203
20,CCACGCGC,-0.165
21,GAGTTTCA,-0.0592
22,GATTTCGC,0.187
23,ATTGATCA,-0.0402
24,AGTGACCC,-0.109
25,CGCGATTA,0.0779

row,Sequence,PBM E-score
1,CCCAAACA,0.176
2,AATATCGC,-0.0104
3,CCGCCACA,-0.168
4,CTTTTTCC,0.0714
5,AGATATAT,0.201
6,GGTAGAAA,-0.00447
7,GCATCTCC,-0.242
8,CGCCAACC,-0.228
9,ACACTCTC,0.0367
10,AGCGAAAC,0.261
11,AGGGTATC,-0.0728
12,AACACGTC,0.0815
13,AACAACCT,0.114
14,GAGGTCGA,-0.13
15,GTGGATAA,0.116
16,AGGCCTTG,-0.292
17,AAACAACG,0.0325
18,CGGCCCGC,-0.182
19,CGGTAGAG,-0.298
20,AGGCTGGC,-0.382
21,AGAAGCCT,0.0272
22,AGAATAAC,-0.0809
23,AAAATATC,0.16
24,CGGTACAA,0.311
25,AGTCCATG,0.196

row,Sequence,PBM E-score
1,ACCTGAAC,-0.066
2,GCTGATCC,-0.00559
3,TCACCCAA,0.0406
4,GCCGTCGA,0.0896
5,ATGGAGGG,-0.151
6,ATTGCCGC,-0.0726
7,GGCTCCCA,-0.174
8,CAACCACC,-0.121
9,AAGATGGG,-0.00663
10,CGTTCTAA,0.07
11,ACATTCCA,0.229
12,TGCTTCAA,0.0426
13,GGCTGCAA,-0.0572
14,ACCTGCCA,-0.19
15,ATCCCAGA,-0.198
16,CCACAGAG,-0.0203
17,TCTATGAA,0.124
18,CCAAAACA,-0.0184
19,AACCGGAC,0.0714
20,ACGGAAAA,0.108
21,CGCGAGAG,-0.204
22,ATGGTCAC,0.0754
23,TGTGGTAA,0.148
24,AGTCACAT,-0.126
25,CGTTAAGA,0.0873

row,Sequence,PBM E-score
1,CTCACAAC,0.00456
2,TAATCGGA,0.255
3,ATCCTCGA,-0.0696
4,GAGATCCC,0.0835
5,ACCGGCCA,-0.121
6,AGGCCGCC,-0.115
7,GAGATAAA,0.144
8,ACCTCAGA,-0.147
9,AATGGATC,0.104
10,ATGTAGCG,-0.0985
11,AGGCAGTG,-0.101
12,ACCTCTCG,-0.17
13,ATAGAGGA,-0.141
14,AGAAGAAC,0.00403
15,CGCATGAA,-0.0724
16,AATGTATC,0.24
17,AGGCACAT,-0.0434
18,CACACACA,-0.0778
19,ATGGCAAA,0.0293
20,AACATGAG,-0.152
21,CTACACGA,-0.0282
22,AAACATCC,0.145
23,CTAACTAG,0.0891
24,CAGCAGAA,0.112
25,GCGTCGAA,0.0295

row,Sequence,PBM E-score
1,CCTGCGAA,0.0103
2,CCCATCCC,-0.238
3,TCCCGTCA,0.0424
4,AATGTCTG,0.436
5,AATCGAGG,0.0797
6,CGCGATGA,0.157
7,CTCCACAG,-0.226
8,AGCAGGGA,0.0713
9,AAAACCGA,0.0393
10,TCATGACA,0.388
11,GAACGACC,-0.145
12,CCTGAAGA,-0.00375
13,ATTAATCA,0.00845
14,ATGTACCC,0.115
15,ACAACCAG,0.177
16,CAATGTAA,0.0987
17,AATAGAGT,-0.17
18,CAAGTGAG,-0.0348
19,TAAAACGA,0.0314
20,CGGGAGAA,0.0141
21,AGGAGTTA,-0.0752
22,TACGGGAA,-0.15
